# According to the supplement of paper PMC3334620:
# Over roughly 33,000 sequences, “E-score (-0.5 to 0.5)” has its median near -0.016; the highest 2% begin near 0.31. Some of the results follow.
# Molecular target: Cst6 (UniProt P40535)
# Experiment: PBM E-score (8-mer binding enrichment) (E-score (-0.5 to 0.5)); higher = stronger / more preferred TF binding; most listed sequences are background and not binding sites
# Settings: protein concentration: 200 nM; construct: GST-DNA-binding domain
# Method: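 Universal 'all 10-mer' protein binding microarrays (Agilent AMADID 015681) probed with GST-tagged S. cerevisiae TFs (full-length or DBD) made by in vitro transcription/translation (PURExpress), about 100-200 nM. Bound TF was detected with fluorescent anti-GST. Each ungapped 8-mer (which stands for itself and its reverse complement) is scored by the PBM enrichment score (E-score), a modified Wilcoxon-Mann-Whitney statistic from -0.5 to +0.5, computed with the Universal PBM Analysis Suite. Scale: above 0.35 generally sequence-specific binding.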
row,Sequence,PBM E-score
1,GGCCAGCA,-0.245
2,ATGCAGCG,-0.0614
3,AAAACGAC,-0.0836
4,AGAATAGG,0.0888
5,AGAGGATA,-0.0686
6,AGTGGTAC,-0.204
7,ATGATCCG,0.0651
8,CCTGCCAG,-0.275
9,ACGTTCCG,-0.177
10,GTTCCGGA,-0.223
11,ACGGGGAT,-0.182
12,AACGAATA,-0.0884
13,CACCCTCG,-0.0792
14,GCAGTAGC,-0.307
15,TTGGAAAA,0.145
16,AGGCAATA,0.0144
17,CTTGGGTC,-0.295
18,GAGGTCCA,-0.231
19,CAAACTGG,-0.234
20,ACGCGAGC,-0.00439
21,AGCTGTTG,0.135
22,TCGAGTAA,0.214
23,ATGAGAAG,0.00938
24,AGGCGCCT,0.207
25,CCACATGG,-0.126

row,Sequence,PBM E-score
1,CACGTGTA,0.099
2,GACATCTA,0.0419
3,AGGAGAAG,-0.154
4,CTTGTCAA,0.046
5,AATAATAT,0.305
6,AGCCATTC,-0.0981
7,AGTACGAC,-0.0317
8,CTAGGGAC,-0.189
9,CAGCCATA,-0.131
10,GTGTCTCA,-0.0562
11,CACAGAAC,-0.102
12,AAGTCTGA,-0.085
13,CGAGGCCG,-0.182
14,ACCACGCC,-0.128
15,GCCTACGA,-0.0168
16,TCGACCGA,-0.144
17,GTATCGTA,0.133
18,CGAATAAG,-0.097
19,CAACACGA,0.0554
20,CAAGTCCA,-0.255
21,AACGCAAG,0.00296
22,CGGCCCGA,-0.1
23,CAACCCCC,-0.336
24,AATCAGTC,0.11
25,CAGACCGC,-0.00344

row,Sequence,PBM E-score
1,ACTATCAG,0.0591
2,CACATTCA,-0.168
3,AGATCTCG,-0.0826
4,CCAAAAAC,0.14
5,CAATTGGA,-0.0723
6,ATGGTTTC,0.0704
7,ACCGGGCG,-0.364
8,ATGCTAGC,0.104
9,AGTACTGA,0.209
10,CTTATAGA,0.0342
11,TAAGTCAA,0.0153
12,GACAATCC,0.0764
13,AAGCAAGA,0.0824
14,ACCATTGA,-0.00364
15,AGACGTCC,-0.00823
16,ATCTGAAA,0.0964
17,CCCTGTAG,-0.202
18,CACCGGGG,-0.276
19,GATACTGC,-0.0133
20,ATTCACTG,0.0163
21,AGCGTGCA,-0.103
22,CTAATGGC,-0.0382
23,CGGTGGGA,-0.166
24,CCCACAAC,-0.0168
25,ATAGGCCA,-0.209

row,Sequence,PBM E-score
1,AAAACTCT,0.0295
2,CACTCGCA,-0.102
3,CCGTTTTA,0.148
4,CCAATTGG,-0.0187
5,GACTAACC,-0.11
6,GCTGCTTA,-0.0833
7,ACATAGTG,0.0798
8,ACGAAACG,0.202
9,CACTCAAC,0.0759
10,GGTGGATA,-0.0848
11,TAGATAAA,0.0886
12,CGCTCGAA,-0.135
13,GACAAGTA,-0.105
14,ACAAACCG,0.00436
15,AAACCACA,0.161
16,AGAGCTTC,-0.26
17,AGGTCCTG,-0.31
18,ACCACGAA,-0.0509
19,ACGTGATG,0.291
20,AAACAGCG,0.091
21,GTGGACGA,0.0302
22,CGTACCAA,0.0391
23,CTCTGTGA,0.0453
24,AGGTGAGA,0.0149
25,CTAGTACA,0.12

row,Sequence,PBM E-score
1,GGCTATTA,0.236
2,AGCTTTCC,-0.185
3,AGAGCCGA,0.102
4,ATCCGAAC,-0.0874
5,CACGGAGG,-0.133
6,CATACGGG,-0.102
7,CAAGTATA,-0.069
8,AGGGAAGA,-0.255
9,AGCCGTCG,-0.0206
10,AAATACTG,0.041
11,ACTGCGCG,-0.00892
12,GACTATTA,0.108
13,TTTAAAAA,0.0985
14,CATGTAGG,0.0522
15,ATGGATAA,0.13
16,AGGGAATC,-0.106
17,ATAACGAT,0.0122
18,ATGGCAGC,-0.106
19,AGGAAAAC,-0.0557
20,CTCACTGC,-0.0116
21,ACATGACT,-0.0377
22,CGCAGTCA,-0.114
23,ACCTGTGG,-0.192
24,CTATTGCA,0.0171
25,ACGCATAC,0.16

row,Sequence,PBM E-score
1,ACCGTCGC,-0.0702
2,CGCTGGAC,-0.297
3,AGTTTCAC,0.0804
4,CAGTTGGG,-0.0311
5,ATAATCGA,0.0249
6,AGAGTGGG,-0.134
7,ACTTCCGC,-0.187
8,CAGTTCCC,-0.0232
9,ACGGCTGC,-0.0402
10,CTCAGGAG,-0.106
11,CAGACTAG,-0.199
12,CCATCGAA,0.0752
13,CACCAGTG,-0.0525
14,AACCTAGC,-0.22
15,CCGTTGGA,-0.208
16,AGAGAGAG,-0.155
17,ATAACCCA,-0.00817
18,GATTGTCA,0.17
19,TCCGACGA,-0.0151
20,CAATTCCC,0.0483
21,CATTGCAC,0.0758
22,TGCGTCAA,0.318
23,ACATTAAT,0.119
24,CTTCAATC,0.0446
25,CGGAGGGC,-0.314

row,Sequence,PBM E-score
1,AAAATGAC,0.327
2,ACCCTCGA,-0.212
3,GTACAAGA,0.0547
4,AGCTGTTA,0.0939
5,AGAACCCT,-0.269
6,CAAATAGA,0.169
7,CTCCTAGA,-0.09
8,AAGCTGTA,0.0993
9,ATTGAGCA,-0.0751
10,TCCCCTAA,-0.144
11,TCGCAAGA,-0.124
12,CTTGACGC,0.214
13,GTCGGAGA,-0.151
14,ACTGCTGC,-0.0308
15,ATCCAGAG,-0.0234
16,GTGCAAAA,0.09
17,AGTCAGCG,-0.134
18,GAACCACC,0.0133
19,CCATAGGA,-0.242
20,TCCAGGAA,-0.072
21,AAATTCAG,0.117
22,CACCCAAA,-0.00202
